Assay results: article PMC4336329 (PLoS ONE, 2015)
The whole screen tested about 310,000 compounds, of which about 2,200 (0.71%) showed an effect of 50% or more. Effects have a minus sign here. Some of the results follow.

Each molecule was assayed against human ether-à-go-go-related gene (hERG) potassium channel (human, UniProt Q12809) (assay: primary screen, population patch clamp on CHO cells stably expressing hERG).
human ether-à-go-go-related gene (hERG) potassium channel, sequence (Q12809 whole entry, looked up): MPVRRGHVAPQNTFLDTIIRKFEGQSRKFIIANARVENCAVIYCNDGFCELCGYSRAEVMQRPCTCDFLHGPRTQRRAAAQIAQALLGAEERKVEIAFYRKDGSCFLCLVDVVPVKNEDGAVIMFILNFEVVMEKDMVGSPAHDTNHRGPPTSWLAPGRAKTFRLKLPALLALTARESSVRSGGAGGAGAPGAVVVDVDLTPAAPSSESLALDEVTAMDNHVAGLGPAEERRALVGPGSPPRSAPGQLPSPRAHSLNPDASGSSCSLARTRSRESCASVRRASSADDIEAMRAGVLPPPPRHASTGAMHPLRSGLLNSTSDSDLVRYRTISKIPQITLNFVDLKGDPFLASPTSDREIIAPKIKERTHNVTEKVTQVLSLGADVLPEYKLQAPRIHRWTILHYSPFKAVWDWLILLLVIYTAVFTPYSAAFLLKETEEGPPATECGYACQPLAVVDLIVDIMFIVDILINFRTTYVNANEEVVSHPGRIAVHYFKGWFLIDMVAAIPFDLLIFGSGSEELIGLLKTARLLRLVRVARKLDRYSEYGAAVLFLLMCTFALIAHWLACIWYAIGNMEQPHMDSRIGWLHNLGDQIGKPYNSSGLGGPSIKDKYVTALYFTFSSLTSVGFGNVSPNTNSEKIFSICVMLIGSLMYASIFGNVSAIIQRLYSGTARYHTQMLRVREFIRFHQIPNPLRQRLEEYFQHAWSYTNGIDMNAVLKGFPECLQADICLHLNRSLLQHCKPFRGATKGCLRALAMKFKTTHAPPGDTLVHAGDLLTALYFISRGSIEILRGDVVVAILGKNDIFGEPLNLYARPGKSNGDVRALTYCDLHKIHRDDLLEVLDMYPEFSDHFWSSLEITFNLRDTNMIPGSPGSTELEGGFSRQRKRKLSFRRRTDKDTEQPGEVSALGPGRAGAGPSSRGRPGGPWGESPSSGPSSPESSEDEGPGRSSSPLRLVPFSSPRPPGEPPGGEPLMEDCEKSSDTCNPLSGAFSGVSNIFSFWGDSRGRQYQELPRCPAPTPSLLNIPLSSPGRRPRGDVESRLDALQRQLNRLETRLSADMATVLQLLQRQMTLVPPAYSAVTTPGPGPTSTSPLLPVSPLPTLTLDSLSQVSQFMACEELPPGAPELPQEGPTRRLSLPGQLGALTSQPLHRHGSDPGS

SMILES	hERG current change (%, negative = inhibition) at 1uM
O=C(/C=C/Nc1ccc(F)c(Cl)c1)c1ccco1	7%
CC1(C)Cc2c(sc(NC(=O)c3ccc(C(=O)c4ccccc4)cc3)c2C(N)=O)C(C)(C)N1	8.87%
COC(=O)CSc1n[nH]c(=S)s1	6.49%
CC1(C)CC(NC(=O)Cc2ccc(Cl)cc2)CC(C)(C)N1	16.7%
CC(=O)c1ccc(S(=O)(=O)N2CCC(c3nc4ccccc4[nH]3)CC2)cc1	-30.2%
Cc1ccc(S(=O)(=O)C(C#N)c2nc3ccccc3nc2N2CCCC2)cc1C (stereo not shown)	4.09%
O=C(Nc1ccccc1)Nc1ccc(C(=O)N2CCCC2)cc1	1.79%
Cc1c(/C=N/O)c2ccccc2n1C	6.72%
COCCNCCCCSc1ccc(Cl)cc1	-6.69%
Nc1cc(C(=O)OCC(=O)NCCCc2ccccc2)ccc1Cl	9.94%
Cc1cccc(C(=O)N[C@H](C(=O)NCCc2ccc(Cl)cc2)C(C)C)c1	11.6%
COc1ccc(C(=O)N[C@H](C(=O)OCC(=O)NC(=O)c2cccn2C)C(C)C)cc1	4.44%
C=C(C)CNC(=S)N=Nc1c(O)[nH]c2ccc([N+](=O)[O-])cc12	-0.518%
COc1cc(/C=N/Nc2nc(Nc3ccccc3)nc(N3CCCCC3)n2)ccc1OCC(=O)O	9.39%
Cn1nccc1NC(=O)Nc1ccccc1	15.2%
Cc1cc(Cn2nnnc2-c2ccncc2)cc(C)c1O	8.26%
COc1ccc(-c2csc(/C(C#N)=C\c3ccc(OC)c([N+](=O)[O-])c3)n2)cc1	-1.51%
COc1cccc(NC(=O)CCCn2c(=S)[nH]c3ccccc3c2=O)c1	11.1%
COc1cc(C=O)ccc1OCc1ccncc1	15.6%
O=C(CN1C(=O)c2cccc3cccc1c23)Nc1ccc2c(c1)OCO2	17.3%
CCOC(=O)c1c(C)[nH]c(C(=O)CSc2nnnn2-c2ccc(C)cc2)c1C	0.0761%
COc1ccc(C(=O)NC(Cn2ccnc2)C(C)(C)C)cc1OC1CCN(C(C)C)CC1 (stereo not shown)	-12.8%

SMILES	hERG current change (%, negative = inhibition) at 1uM
COc1ccc(NC(=O)CCNC(=O)c2ccco2)cc1OC	13.7%
O=C(Nc1ccc2c(c1)oc1ccccc12)C1CC1	17.6%
CCCOc1ccccc1OCC(=O)Nc1ccc(S(=O)(=O)N2CCCC2)cc1	6.02%
CC(=O)N1CCN(C(=O)c2cccc(S(=O)(=O)Nc3ccc(C)cc3)c2)CC1	20.9%
CSc1nc2c(C)c(C)c(C)c(C)c2[nH]1	6.55%
Cn1c(=O)c2cn(-c3ccc4c(c3)OCCO4)cc2n(C)c1=O	13.7%
CCOC(=O)C1=C(C)NC(=O)C(C(N)=O)C12CCCC2 (stereo not shown)	19.6%
CNC(=O)N(O)C1N(/N=C/c2cc(Br)ccc2O)C(=S)SC1(C)C (stereo not shown)	8.79%
N#CCC(=O)Nc1ccc(C(=O)OCC(=O)NNC(=O)c2ccc(Cl)cc2)cc1	8.22%
COc1ccc(CNC(=O)Cc2nn(C)c(=O)c3ccccc23)cc1	-0.0936%
Cc1cc(C)c(S(=O)(=O)N2CC=C(c3ccccc3)CC2)c(C)c1	10.5%
COc1ccc(C(=O)N2CCN(Cc3nc(CC4CC4)no3)CC2)cc1	1.81%
CNC(=O)C1CC(=O)N(CCc2ccc(OC)c(OC)c2)C(=Nc2ccc(F)cc2)S1 (stereo not shown)	-3.69%
O=C(/C=C/c1ccc(OC(F)F)cc1)Nc1cccc(S(=O)(=O)NC2=NCCCCC2)c1	-2.86%
Cc1cc(C)cc(NC(=O)CN2CCC(C(=O)c3ccccc3)CC2)c1	5.83%
C=CCn1c(CCc2ccccc2)nnc1SCC(=O)OC	9.59%
COc1ccc(-c2[nH]c(-c3ccc(F)cc3)nc2SCC(=O)NC2CCCC2)cc1	8.28%
CCOC(=O)N1CCN(C(=O)COc2ccccc2OC)CC1	12.9%
CC(=O)C1=C(C)NC(SCC(=O)c2ccccc2)=C(C#N)C1c1ccco1 (stereo not shown)	9.18%
Cc1cccc(C)c1N1C(=O)C2ON(c3ccccc3)C(c3ccncc3)C2C1=O (stereo not shown)	-1.05%
CCOc1ccc(NC(=O)c2ccc(CNc3c(NC4CCCCC4)c(=O)c3=O)cc2)cc1	9.01%
Cc1ccc(S(=O)(=O)Nc2ccccc2C(O)c2ccccc2)cc1 (stereo not shown)	15%

SMILES	hERG current change (%, negative = inhibition) at 1uM
CCC(=O)c1ccc(N2CCN(C(=O)c3ccccc3F)CC2)c(F)c1	4.36%
COc1ccc(NC(=O)CCS(=O)(=O)c2ccc3c(c2)NC(=O)C(C)S3)cc1OC (stereo not shown)	18.7%
Cc1ccc(-c2csc3nc[nH]c(=O)c23)c(C)c1	2.26%
O=C(O)c1ccc(-n2cc(C(=O)c3ccccc3O)cn2)cc1	12.7%
Cc1ccc(-c2cc(C(=O)N(C)Cc3cnn(C)c3C)c3cc(Br)ccc3n2)cc1	-2.42%
O=C(O)c1ccc(Nc2nc3ccccc3nc2NS(=O)(=O)c2cccs2)cc1	10.4%
CC(C)(CO)NC(=O)CC1C(=O)NCCN1Cc1ccc(-c2ccccc2)cc1 (stereo not shown)	10.9%
O=C(CN1C(=O)NC2(CCOc3ccccc32)C1=O)NCc1ccc(F)cc1 (stereo not shown)	2.09%
CC(=O)C1=C(c2ccccc2)NC(=O)NC1c1ccc(O)c(O)c1 (stereo not shown)	6.85%
Cc1cccc(OCCC(=O)Nc2nnc(C)s2)c1	7.86%
Cc1csc(SCC(=O)Nc2ccc(Cl)cn2)n1	9.06%
CCC1(c2ccccc2)NC(=O)N(CC(=O)N(C)Cc2c(F)cccc2Cl)C1=O (stereo not shown)	7.96%
CC(C)(C)Nc1cccccc1=O	11%
Cn1c(=O)c2c(nc(NCc3ccccc3)n2CC(N)=O)n(C)c1=O	15.8%
C=CCn1c(CSCc2ccc(Cl)cc2)nnc1SCC(=O)NCc1ccccc1	-14.8%
CN(C)C(=S)SCC(=O)Nc1cccc(C(F)(F)F)c1	-23.4%
CCOC(=O)C1(CCOc2ccccc2)CCN(C(C)CSC)CC1 (stereo not shown)	-10.9%
Nc1nonc1-c1noc(-c2ccccc2Br)n1	-13.6%
Cc1cc2nc(-c3ccc(SCC(=O)N4CCN(C(=O)c5ccco5)CC4)nc3)[nH]c2cc1C	7.95%
CC(=O)N(C)C1=C(O)c2ccccc2C(=O)C1=O	18%
CCCCNC(=O)c1onc(CSc2ccc(OC)cc2)c1C(=O)O	-1.41%
O=C(COC(=O)/C=C/c1ccccc1)NC(=O)NCc1ccccc1	4.63%

SMILES	hERG current change (%, negative = inhibition) at 1uM
Cc1nn(-c2ccccc2)c(N2CCCC2)c1/C=N/NC(=S)Nc1ccc(F)cc1	6.02%
Cc1sc2ncnc(N3CCC(C(=O)N(C)CC(=O)Nc4ccccc4Br)CC3)c2c1C	-8.93%
Cc1ccc(-n2nc(-c3ccccc3)cc2Nc2ccccc2N)cc1	14.3%
CS(=O)(=O)N(Cc1ccccc1)c1ccc(C(=O)NN=C2CCCCCC2)cc1	0.887%
Cc1cccc(S(=O)(=O)N2CN(Cc3ccco3)c3nc4ccccc4nc32)c1	4.44%
O=S(=O)(NCc1ccccc1F)c1cccc(S(=O)(=O)N2CCOCC2)c1	4.35%
COc1cc(-c2nnc(SCC3(c4ccc(Br)cc4)OCCO3)o2)cc(OC)c1OC	8.77%
Br.N=c1n(CCN2CCCCC2)c2ccccc2n1CC(=O)c1cccs1	16.6%
COc1ccc(-c2nc(CSCC(=O)N3CCN(C4CCCCC4)CC3)c(C)o2)cc1OC	-14.3%
COc1ccc(F)cc1-c1nc(N)nc(N)n1	11.2%
O=C(Nc1ccccc1N1CCN(c2ccccc2)CC1)c1ccccc1	10.5%
Cc1noc(C)c1S(=O)(=O)N1CCCC(C(=O)NC2CCCCC2)C1 (stereo not shown)	8.61%
CCCN(C(=O)C1CCN(S(=O)(=O)c2ccc(OC)c(OC)c2)CC1)C1CCS(=O)(=O)C1 (stereo not shown)	14.2%
Cc1ccc(S(=O)(=O)N2CCN(C(C)C(=O)N3CCCc4ccccc43)CC2)cc1 (stereo not shown)	0.539%
Cc1ccc(-c2nc(N3CCOCC3)sc2C(=O)N2CCOCC2)cc1	8.16%
CC1(c2ccccc2)NC(=O)N(CC(=O)Nc2ccccc2C(=O)NC2CC2)C1=O (stereo not shown)	-17.8%
CCN1C(=O)c2cccc3c(NC(=O)C(C)(C)C)ccc1c23	13.1%
Cc1cc(C)n(/N=C/c2cccc([N+](=O)[O-])c2)c(=O)c1	12.3%
CC(C)Oc1ccc(C(=O)N/N=C/c2ccc(-c3ccc(S(=O)(=O)Nc4ncccn4)cc3)o2)cc1	14.8%
CN(CCc1cnn(C)c1)Cc1nc(Cc2ccccc2)no1	6.78%
COc1c(C)cc(C(=O)C2CCCN(Cc3cccc(O)c3)C2)cc1C (stereo not shown)	5.96%
C/C=C/CSc1nc2c(c(=O)[nH]c(=O)n2C)n1CCC	-6.37%
